The full ranking holds about 110,000 compounds; the median of “z-score” is about -0.1, and the highest 2% start at about 2. The list shows a part of the results. Calls of active or inactive are those of the source.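 The calls were made as follows: active = z-score in the third read window above 3 or below -3; inactive = the rest.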
Target: Metabotropic glutamate receptor 8 (Rattus norvegicus) (UniProt P70579)
Experiment: mGluR8 Gi/Go-coupled signaling modulation – cell-based, rat, thallium flux, HTS, primary screen (AID 488969)
Conditions: HEK293 rat mGluR8, GIRK (G protein-gated inwardly rectifying potassium channel) thallium flux, FluoZin2; at 10 µM; stronger effect = higher value; submaximal glutamate (EC20) added with thallium

UniProt P70579, sequence (P70579 whole entry, looked up): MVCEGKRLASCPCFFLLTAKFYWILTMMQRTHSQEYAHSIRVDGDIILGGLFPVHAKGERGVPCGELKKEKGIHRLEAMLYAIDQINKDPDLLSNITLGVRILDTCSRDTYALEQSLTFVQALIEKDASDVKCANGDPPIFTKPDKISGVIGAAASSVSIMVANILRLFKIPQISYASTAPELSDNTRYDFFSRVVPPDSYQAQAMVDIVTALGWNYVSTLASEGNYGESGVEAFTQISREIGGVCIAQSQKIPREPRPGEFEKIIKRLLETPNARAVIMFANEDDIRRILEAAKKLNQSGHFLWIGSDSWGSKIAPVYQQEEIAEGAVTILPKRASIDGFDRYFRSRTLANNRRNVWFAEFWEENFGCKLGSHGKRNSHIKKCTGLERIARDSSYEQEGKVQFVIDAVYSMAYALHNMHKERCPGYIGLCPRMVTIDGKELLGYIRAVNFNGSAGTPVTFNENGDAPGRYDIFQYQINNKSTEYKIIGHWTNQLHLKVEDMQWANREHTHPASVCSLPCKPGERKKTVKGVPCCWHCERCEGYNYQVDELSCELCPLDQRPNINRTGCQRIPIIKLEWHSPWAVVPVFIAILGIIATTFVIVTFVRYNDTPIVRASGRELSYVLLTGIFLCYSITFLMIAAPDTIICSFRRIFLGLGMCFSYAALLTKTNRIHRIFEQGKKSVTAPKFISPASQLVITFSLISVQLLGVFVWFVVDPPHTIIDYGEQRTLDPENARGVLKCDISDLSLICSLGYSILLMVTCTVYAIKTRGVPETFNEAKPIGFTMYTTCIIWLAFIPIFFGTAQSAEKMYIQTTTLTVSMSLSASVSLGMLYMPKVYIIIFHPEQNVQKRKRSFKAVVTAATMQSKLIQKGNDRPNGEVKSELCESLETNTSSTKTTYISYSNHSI

In order of rising z-score:
1. CCN(CC)c1ccc2cc(C(C)=O)c(=O)oc2c1  -2.23
2. COC(=O)COc1ccc2c(-c3ccc(OC)cc3)cc(=O)oc2c1  -0.548
3. CCCCOC(=O)c1ccc(Nc2ccc([N+](=O)[O-])cn2)cc1  -0.323
4. CCN=C1S/C(=C\c2ccc(Sc3ccc(Cl)cc3)o2)C(=O)N1CC  -0.313
5. O=C(NC1CC1)C1CCN(c2ccc(S(=O)(=O)N3CCOCC3)cc2)CC1  -0.303
6. Cc1c(C(=O)NCc2ccccn2)oc2ccccc12  -0.3
7. Cc1ccc(-c2cc(-c3ccccc3[N+](=O)[O-])[nH]n2)c(O)c1  -0.292
8. O=C(Nc1cc(S(=O)(=O)N2CCCC2)ccc1OCC(F)(F)F)c1ccc(F)cc1  -0.267
9. COc1ccc(NC(=O)CN(C)S(=O)(=O)c2ccccc2)cc1OC  -0.21
10. Cc1cc2n(c(=O)c1C#N)CCCN2c1ccccc1  -0.204
11. Cc1c(NC(=O)C23CC4CC(CC(C)(C4)C2)C3)c(=O)n(-c2ccccc2)n1C  -0.193
12. O=C(CN1C(=O)CCC1=O)Nc1nc(-c2ccccn2)cs1  -0.187
13. CCNS(=O)(=O)c1ccc(OCCNS(C)(=O)=O)cc1  -0.177
14. COc1cc(OC)c2c(OC)cccc2n1  -0.165
15. CCc1ccc(/C=N/n2c(C)cc(C)c(C#N)c2=O)cc1  -0.158
16. O=C(Nc1cccnc1)c1ccc2c(c1)C(=O)N(Cc1cccnc1)C2=O  -0.157
17. Cc1cc(C)n(CC(C)O)c(=O)c1C#N (configuration not stated)  -0.146
18. Cc1ccc(-c2nnnn2CS(=O)(=O)c2ccccc2)cc1  -0.118
19. Cc1nc(Sc2ccccc2)c(C#N)cc1-c1ccccc1  -0.111
20. CC(=O)c1cccc(S(=O)(=O)NC2CCCCCC2)c1  -0.11
21. Cc1ccc(-c2cc3ccccc3nc2N2CCCC2)cc1  -0.0969
22. CCOc1ccc(NC(=O)C2CC(=O)N(c3cc(C)cc(C)c3)C2)cc1 (configuration not stated)  -0.0775
23. Cc1c(C(=O)NCc2ccco2)cccc1[N+](=O)[O-]  -0.0721
24. Cc1cccc(NC(=O)Cn2c(O)c(N=NC(=O)c3ccccc3O)c3ccccc32)c1  -0.0679
25. COc1ccc([N+](=O)[O-])cc1NC(=O)CSCc1cc(C)cc(C)c1  -0.0401
26. CCOc1ccc(N2C(=O)CC(N3CCC(O)(c4ccc(Br)cc4)CC3)C2=O)cc1 (configuration not stated)  -0.0395
27. COc1ccc(C(=O)n2nnc3ccccc32)cc1Br  -0.0377
28. CC(=O)c1cccc(NC(=O)C2CCN(S(=O)(=O)c3ccccc3)CC2)c1  -0.0156
29. Oc1ccc(Cl)cc1-c1cc(-c2ccco2)[nH]n1  -0.00898
30. CCOc1ccc(Cn2ccnc2CCl)cc1[N+](=O)[O-]  -0.00871
31. CCOC(=O)c1cc(=O)n2nc(-c3ccccc3F)nc2s1  -0.0057
32. COCc1cc(=O)[nH]c(/N=C(\N)Nc2ccc(C)cc2)n1  0.0425
33. COc1ccc(NC(=O)C23CCC(C)(C(=O)O2)C3(C)C)cc1 (configuration not stated)  0.0605
34. O=C(CN1CCSC1=NCc1ccccc1)c1ccc(Cl)cc1  0.0664
35. COc1cc(OC)cc(C(=O)n2nc(C)cc2C)c1  0.0696
36. O=C(c1cnn2cccnc12)N1CCN(c2ccccc2)CC1  0.0788
37. O=C(O)C1C2C=CC(C2)C1C(=O)N1CCN(C/C=C/c2ccccc2)CC1 (configuration not stated)  0.0931
38. CC(=O)c1c(C)[nH]c(C(=O)COC(=O)c2cccc(S(=O)(=O)N(C)c3ccccc3)c2)c1C  0.0974
39. Cc1sc(NC(=O)c2ccco2)c(CN2CCC(C)CC2)c1C  0.102
40. COc1ccc(-n2ncc3c(=O)n(CC(=O)N4CCCc5ccccc54)cnc32)cc1  0.104
41. COc1ccc(Oc2coc3cc(OC(=O)c4cncc(Br)c4)ccc3c2=O)cc1  0.127
42. CCOC(=O)c1cc2oc(C)cc2n1CC(=O)OC1CCCCC1  0.159
43. O=C(c1ccc([N+](=O)[O-])cc1)N1CCSC1c1ccccc1 (configuration not stated)  0.166
44. CSc1nc(C)c(CCOC(=O)c2cccc(C)c2)c(=O)[nH]1  0.169
45. CCS(=O)(=O)N1Cc2ccccc2CC1C(=O)NCC12CC3CC(CC(C3)C1)C2 (configuration not stated)  0.189
46. CCOc1cc(CNCCSc2nnnn2C)cc(Br)c1OCc1ccccc1F  0.196
47. Cc1ccc(C(c2nnnn2CC2CCCO2)N2CCN(C(=O)c3ccco3)CC2)cc1 (configuration not stated)  0.413
48. Cc1ccc2c(c1)C1CN(C)CCC1N2C(=O)Nc1ccc(Cl)cc1 (configuration not stated)  0.457
49. Nc1nc2n(n1)C(c1cccc(Br)c1)CC(c1ccc(F)cc1)N2 (configuration not stated)  0.693
50. COc1cccc(Oc2cn[nH]c2-c2ccc(OC)cc2O)c1  0.852
51. C=CCn1c(Cc2c[nH]c3ccccc23)nnc1SCC(=O)NCc1ccccc1  1.02
52. Cc1ccc2c(c1)c(C)c(C)n2CC(O)Cn1nc(C)c(Br)c1C (configuration not stated)  1.09
53. Cc1cc2ncn(/N=C/c3cccnc3)c2cc1C  1.48
54. Cc1cc(C)c2ccc(NN)nc2c1O  1.51

With O=c1c2cccnc2[nH]c(=S)n1Cc1ccccc1 the z-score was active: 3.
CCCCCCCC1CC(CSc2ncn[nH]2)OC1=O (configuration not stated) was tested, and the z-score was active: 5.73.
With C/C(=N/NC(=S)Nc1ccccc1)c1ccc2c(c1)OCO2 the z-score was active: 7.92.
